# According to publication PMC9911399, “Two distinct binding modes provide the RNA-binding protein RbFox with extraordinary sequence specificity”:
# Residue numbers refer to the chain shown, from its start. This is one part of the list.
# T1: RBFOX1 RRM RbFoxmut (Fox-RRM*) (Homo sapiens, UniProt Q9NWB1 109-208, R118D;E147R;N151S;E152T)
# T1 sequence: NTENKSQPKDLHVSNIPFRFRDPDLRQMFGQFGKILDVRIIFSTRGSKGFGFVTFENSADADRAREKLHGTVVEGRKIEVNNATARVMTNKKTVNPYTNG
# B1: ACCGUCG (DNA:RNA)
# RNA: GGGAGACCGGAAUUCAGAUUGUCCACCGUCGUUAAAUCCCGUCGUAGCCACCA
# DNA 1: CAATCTGAATTCCGGTCTCCC
# DNA 2: TGGTGGCTACGACGGGATT
# B2: AUGGUCC (DNA:RNA)
# RNA: B1 RNA with C26U, C27G, G31C
# DNA 1: CAATCTGAATTCCGGTCTCCC
# DNA 2: TGGTGGCTACGACGGGATT
# B3: UAUGAUA (DNA:RNA)
# RNA: B1 RNA with A25U, C26A, C27U, U29A, C30U, G31A
# DNA 1: CAATCTGAATTCCGGTCTCCC
# DNA 2: TGGTGGCTACGACGGGATT
# B4: UGGCACC (DNA:RNA)
# RNA: B1 RNA with A25U, C26G, C27G, G28C, U29A, G31C
# DNA 1: CAATCTGAATTCCGGTCTCCC
# DNA 2: TGGTGGCTACGACGGGATT
# B5: ACCCCAC (DNA:RNA)
# RNA: B1 RNA with G28C, U29C, C30A, G31C
# DNA 1: CAATCTGAATTCCGGTCTCCC
# DNA 2: TGGTGGCTACGACGGGATT
# B6: CCUAUUU (DNA:RNA)
# RNA: B1 RNA with A25C, C27U, G28A, C30U, G31U
# DNA 1: CAATCTGAATTCCGGTCTCCC
# DNA 2: TGGTGGCTACGACGGGATT
# B7: AUCCCAG (DNA:RNA)
# RNA: B1 RNA with C26U, G28C, U29C, C30A
# DNA 1: CAATCTGAATTCCGGTCTCCC
# DNA 2: TGGTGGCTACGACGGGATT
# B8: CUCAAGU (DNA:RNA)
# RNA: B1 RNA with A25C, C26U, G28A, U29A, C30G, G31U
# DNA 1: CAATCTGAATTCCGGTCTCCC
# DNA 2: TGGTGGCTACGACGGGATT
# B9: GGCAGAG (DNA:RNA)
# RNA: B1 RNA with A25G, C26G, G28A, U29G, C30A
# DNA 1: CAATCTGAATTCCGGTCTCCC
# DNA 2: TGGTGGCTACGACGGGATT
# B10: UCAUGUU (DNA:RNA)
# RNA: B1 RNA with A25U, C27A, G28U, U29G, C30U, G31U
# DNA 1: CAATCTGAATTCCGGTCTCCC
# DNA 2: TGGTGGCTACGACGGGATT
# B11: GCGCCCU (DNA:RNA)
# RNA: B1 RNA with A25G, C27G, G28C, U29C, G31U
# DNA 1: CAATCTGAATTCCGGTCTCCC
# DNA 2: TGGTGGCTACGACGGGATT
# B12: GAUCAGU (DNA:RNA)
# RNA: GGGAGACCGGAAUUCAGAUUGUCCGAUCAGUUUAAAUCCCGUCGUAGCCACCA
# DNA 1: CAATCTGAATTCCGGTCTCCC
# DNA 2: TGGTGGCTACGACGGGATT
# B13: UAAUGAU (DNA:RNA)
# RNA: B12 RNA with G25U, U27A, C28U, A29G, G30A
# DNA 1: CAATCTGAATTCCGGTCTCCC
# DNA 2: TGGTGGCTACGACGGGATT
# B14: UUGCCUG (DNA:RNA)
# RNA: B1 RNA with A25U, C26U, C27G, G28C, U29C, C30U
# DNA 1: CAATCTGAATTCCGGTCTCCC
# DNA 2: TGGTGGCTACGACGGGATT
# B15: AACAAAG (DNA:RNA)
# RNA: B1 RNA with C26A, G28A, U29A, C30A
# DNA 1: CAATCTGAATTCCGGTCTCCC
# DNA 2: TGGTGGCTACGACGGGATT
# B16: GGACCCG (DNA:RNA)
# RNA: B1 RNA with A25G, C26G, C27A, G28C, U29C
# DNA 1: CAATCTGAATTCCGGTCTCCC
# DNA 2: TGGTGGCTACGACGGGATT
# B17: GUGAAUC (DNA:RNA)
# RNA: B12 RNA with A26U, U27G, C28A, G30U, U31C
# DNA 1: CAATCTGAATTCCGGTCTCCC
# DNA 2: TGGTGGCTACGACGGGATT
# B18: GCUUUGU (DNA:RNA)
# RNA: B12 RNA with A26C, C28U, A29U
# DNA 1: CAATCTGAATTCCGGTCTCCC
# DNA 2: TGGTGGCTACGACGGGATT
# B19: CGUCCGG (DNA:RNA)
# RNA: B12 RNA with G25C, A26G, A29C, U31G
# DNA 1: CAATCTGAATTCCGGTCTCCC
# DNA 2: TGGTGGCTACGACGGGATT
# B20: UACAACG (DNA:RNA)
# RNA: B1 RNA with A25U, C26A, G28A, U29A
# DNA 1: CAATCTGAATTCCGGTCTCCC
# DNA 2: TGGTGGCTACGACGGGATT
# B21: AACUUGU (DNA:RNA)
# RNA: B1 RNA with C26A, G28U, C30G, G31U
# DNA 1: CAATCTGAATTCCGGTCTCCC
# DNA 2: TGGTGGCTACGACGGGATT
# B22: GUCCAAU (DNA:RNA)
# RNA: B12 RNA with A26U, U27C, G30A
# DNA 1: CAATCTGAATTCCGGTCTCCC
# DNA 2: TGGTGGCTACGACGGGATT
# B23: CUACUCU (DNA:RNA)
# RNA: B1 RNA with A25C, C26U, C27A, G28C, G31U
# DNA 1: CAATCTGAATTCCGGTCTCCC
# DNA 2: TGGTGGCTACGACGGGATT
# B24: GUGUUUC (DNA:RNA)
# RNA: B1 RNA with A25G, C26U, C27G, G28U, C30U, G31C
# DNA 1: CAATCTGAATTCCGGTCTCCC
# DNA 2: TGGTGGCTACGACGGGATT
# B25: CAGAUCC (DNA:RNA)
# RNA: B1 RNA with A25C, C26A, C27G, G28A, G31C
# DNA 1: CAATCTGAATTCCGGTCTCCC
# DNA 2: TGGTGGCTACGACGGGATT
# B26: CCAUUGC (DNA:RNA)
# RNA: B1 RNA with A25C, C27A, G28U, C30G, G31C
# DNA 1: CAATCTGAATTCCGGTCTCCC
# DNA 2: TGGTGGCTACGACGGGATT
# B27: UGGGUCC (DNA:RNA)
# RNA: B1 RNA with A25U, C26G, C27G, G31C
# DNA 1: CAATCTGAATTCCGGTCTCCC
# DNA 2: TGGTGGCTACGACGGGATT
# B28: GCCGUCG (DNA:RNA)
# RNA: B1 RNA with A25G
# DNA 1: CAATCTGAATTCCGGTCTCCC
# DNA 2: TGGTGGCTACGACGGGATT
# B29: UGAUAAC (DNA:RNA)
# RNA: B12 RNA with G25U, A26G, U27A, C28U, G30A, U31C
# DNA 1: CAATCTGAATTCCGGTCTCCC
# DNA 2: TGGTGGCTACGACGGGATT
# B30: AGCUAGC (DNA:RNA)
# RNA: B1 RNA with C26G, G28U, U29A, C30G, G31C
# DNA 1: CAATCTGAATTCCGGTCTCCC
# DNA 2: TGGTGGCTACGACGGGATT
# B31: UCCACUG (DNA:RNA)
# RNA: B1 RNA with A25U, G28A, U29C, C30U
# DNA 1: CAATCTGAATTCCGGTCTCCC
# DNA 2: TGGTGGCTACGACGGGATT
# Target: T1, RBFOX1 RRM RbFoxmut (Fox-RRM*)
# Test: EMSA; HiTS-Eq, 1 nM pool, 10 min; buffer printed only for the single-RNA assays: 10 mM Tris pH 7.5, 150 mM NaCl, 3.4 mM EDTA, 0.001% NP-40, 30 C
# Conditions: tags: His6 N-terminal (pET28a); label: 5' 32P
# Summary of the method: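 Purified RbFox RRM, wild type or mutant, was incubated for 10 min in 50 µL with 1 nM of a 5′-radiolabelled RNA pool carrying 7 randomized nucleotides, whose flanks were annealed to DNA oligonucleotides, over a series of increasing protein concentrations. Unbound RNA was resolved on 8% native PAGE, cut out, reverse-transcribed, barcoded by PCR and sequenced on an Illumina HiSeq 2500. Relative association constants were derived from changes in read counts for each RNA species versus the control reaction and normalised to the cognate motif.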
row,Binder,binding signal
1,B1,0.136 KA relative to UGCAUGU
2,B2,0.0995 KA relative to UGCAUGU
3,B3,0.0632 KA relative to UGCAUGU
4,B4,0.113 KA relative to UGCAUGU
5,B5,0.104 KA relative to UGCAUGU
6,B6,0.0808 KA relative to UGCAUGU
7,B7,0.109 KA relative to UGCAUGU
8,B8,0.139 KA relative to UGCAUGU
9,B9,0.0728 KA relative to UGCAUGU
10,B10,0.125 KA relative to UGCAUGU
11,B11,0.0571 KA relative to UGCAUGU
12,B12,0.0801 KA relative to UGCAUGU
13,B13,0.0487 KA relative to UGCAUGU
14,B14,0.377 KA relative to UGCAUGU
15,B15,0.0531 KA relative to UGCAUGU
16,B16,0.123 KA relative to UGCAUGU

row,Binder,binding signal
1,B17,0.42 KA relative to UGCAUGU
2,B18,0.185 KA relative to UGCAUGU
3,B19,0.0535 KA relative to UGCAUGU
4,B20,0.0633 KA relative to UGCAUGU
5,B21,0.121 KA relative to UGCAUGU
6,B22,0.064 KA relative to UGCAUGU
7,B23,0.0641 KA relative to UGCAUGU
8,B24,0.208 KA relative to UGCAUGU
9,B25,0.0703 KA relative to UGCAUGU
10,B26,0.12 KA relative to UGCAUGU
11,B27,0.149 KA relative to UGCAUGU
12,B28,0.0811 KA relative to UGCAUGU
13,B29,0.0615 KA relative to UGCAUGU
14,B30,0.11 KA relative to UGCAUGU
15,B31,0.101 KA relative to UGCAUGU
